± gives the standard deviation of the averaged measurements. The list shows a part of the results.
The sequences below were run on PfAP2-I AP2 domain 3 (GST-tagged) (assay: gcPBM binding intensity (ln(normalized median fluorescence intensity)); higher = stronger DNA binding).
Procedure, shortened: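 Using an Agilent 4 × 180k array, primer-extended double-stranded 36-bp intergenic genomic probes and negative controls were exposed for 1 h to GST-fused P. falciparum DNA-binding domains expressed in E. coli. Binding was carried out in 1× PBS with 1% milk, 0.2 mg/ml BSA, 0.5% salmon testes DNA and 0.03% Triton X-100, and protein was detected with Alexa488 anti-GST antibody and a 488 nm scan. Binding intensity is the highest Masliner-normalised natural-log median intensity across replicate spots of either probe orientation.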

Sequence | gcPBM binding intensity (ln)
TTCTTTTTTTTTATCACACATATTACAATCTAGTGC [CACACA_site4697] | 8.26 ± 0.57
AAAATAATATTTCCTTGTACACATATGTATTTGTTC [XGTACX_site4430] | 8.09 ± 0.54
AAAAGTCTTCAAATTTGTACATATATATATATATAT [XGTACX_site3404] | 9.47 ± 0.53
GGTACATACAGACACACACACAAAAAAAAAAAAATA [CACACA_site6844] | 7.79 ± 0.19
TTAATATTAATTATATGTACATATAATATATATATA [XGTACX_site1757] | 8.69 ± 0.014
ATCTTTTCATATTGCTGTACAAATTATTTTCATTCG [XGTACX_site492] | 8.33 ± 0.72
ATGTTAAACAAATCTATACACACGTATATGACAAAA [CACACA_site1783] | 7.83 ± 0.64
GAGAAATGGAGACACACACACATATTATATATATAT [CACACA_site1532] | 9.105 ± 0.049
TGTATAAAATTCCATTGTACATATTATTTTACGACA [XGTACX_site7764] | 7.62 ± 0.5
CGAACACAAACACAAACACACATCATATATATATAT [CACACA_site4857] | 9.3 ± 0.36
ATTTTGGAAATAATATGTACATATACATAATATATA [XGTACX_site4177] | 7.53 ± 0.32
AATATACAAAAAAAAAAAAAAAAAAAAAAGATGGAA [TGCATGCA_negctrl_site550] | 7.5 ± 0.57
ATAAAAAAAAAAAGAAGTACATGTATTAAAATTTAT [XGTACX_site3927] | 7.85 ± 0.51
TGAATTTACAAAATCATGCACTTAATTACAGAATAA | 8.7 ± 0.45
GCAAATCTTATATGAAGTACATATCTTATAAATAAA [XGTACX_site6903] | 7.72 ± 0.42
TTTATTATATTTTTTTGTACATATTGATGTATATAA [XGTACX_site6527] | 7.77 ± 0.69
AGCAAAATGAAATAAATTGGAAAATATTACTGAACG [CACACA_negctrl_site1433] | 7.58 ± 0.69
TTTCTTTTCTTCTCTATTTTTTTTTCACGGCATTAT [TGCATGCA_negctrl_site484] | 7.61 ± 0.59
ACATTAAAAAATTGTTTGCACTATATAAAATATTAA [GTGCAC_site9728] | 9.86 ± 0.28
AATATAAGAAAAATAACACACACATAAACATATATA [CACACA_site8899] | 7.76 ± 0.55
ATTCATATGAAACACACACACACACCCATAAAAAAA [CACACA_site3246] | 8.13 ± 0.23
TTTTTTTTTTTTTACACACACAAAATATTATAGGTA [CACACA_site7209] | 8.18 ± 0.66

Sequence | gcPBM binding intensity (ln)
ATTTTTTACATACTCAAATGTTTTAATTTTTTATAT [CACACA_negctrl_site1213] | 7.82 ± 0.43
TCTTTTCAATTTTATATGATCTTAATATTTTATGAA [GTGCAC_negctrl_site294] | 7.46 ± 0.58
ATTTTGTTATTATATATATATATATATATATATATA [XGTACX_negctrl_site590] | 9.29 ± 0.49
AAATGTGAACTATAATAATTTCAACGTCTGATATAA [TGCATGCA_negctrl_site440] | 7.51 ± 0.31
AAATTTATAAAGAACACACACATATATATATATATA [CACACA_site48] | 9.42 ± 0.18
CAAAACCTAATATGTACACACATATACATCACACTT [CACACA_site7480] | 8.02 ± 0.3
TTTCTTTCGAATGCTTCACACATTACTCTTAAATAG [CACACA_site5265] | 7.88 ± 0.64
ATATATATATATATAGTGCACATTTATATAATTATT | 11.43 ± 0.092
ATTTTAAATTAAATTACACACTACGAATAATATATT [CACACA_site4016] | 7.64 ± 0.5
ATATTTCTGTCAAGCACACATAATATTAATATATGT [CACACA_site318] | 8.03 ± 0.53
ACATATAAAATATTCACACACAAGTTATAGTTCTCG [CACACA_site3626] | 7.61 ± 0.71
AATAAATTATATATCACACATATATATTTATATTTA [CACACA_site5964] | 7.41 ± 0.45
ACAAATAAGTTTTATACACACATATAAGTAAATACA [CACACA_site4157] | 7.69 ± 0.4
GAGAGGAACATTATATGTACATATTAATTCTAAAAT [XGTACX_site5433] | 7.75 ± 0.31
ACAATATTTTTTTATAAACACACATATATATAAATA [CACACA_site9175] | 7.91 ± 0.39
TATAGTGATATATACACACACTTGTCTTGTAAAAAT [CACACA_site6594] | 8.05 ± 0.35
TGTATAAAAATTTATACACACATTTTATATATTTCA [CACACA_site1015] | 7.62 ± 0.39
TAATCCATAAGAAGCACACACATATATATATATTTT [CACACA_site1399] | 7.84 ± 0.42
TATTAATTATTATGACATACATATCAGTTATTAAAA [CACACA_negctrl_site600] | 7.53 ± 0.31
TAATGGAGAAAAAAAAAACACACGGTACATTCAAAG [CACACA_site3117] | 7.83 ± 0.84
AAGGGAAAATAATAAAAGAAAAAGAAAAAAAAAAAA [CACACA_negctrl_site1518] | 7.97 ± 1
TATATATATATATATTGTACTTTATATGTTCTTATA [XGTACX_site7545] | 9.46 ± 0.45

Sequence | gcPBM binding intensity (ln)
AAATATTACATTTGTTAAATAATATGTTATACATAA [XGTACX_negctrl_site484] | 7.32 ± 0.54
TTTTATAAAGGAAAAGCATGCAGACTAAAAGATCAT [TGCATGCA_site150] | 8.93 ± 0.12
TTATAATCTTTTGGTTCTATAGAATATCAAAAAATA [CACACA_negctrl_site1149] | 7.43 ± 0.47
TTTTTAAAAAAATTGATTCTTTTTCTTTTTTTTCTT [XGTACX_negctrl_site127] | 7.07 ± 0.8
TTTTTTGCTTGGGTGAGAAAAAATAAAATAAAGGAA [TGCATGCA_negctrl_site139] | 8.12 ± 0.32
TATTATTGTCATTTTTTTTTTTTTTTTTTCTATTTC [XGTACX_negctrl_site114] | 7.43 ± 0.38
AAAAAATAAAAGGAAAAAAAAAAAAAAAAAAAAAAT [CACACA_negctrl_site635] | 7.51 ± 0.57
ATTTATACAAAGCTTCGTACATAATGTATTCTTTTT [XGTACX_site2166] | 7.57 ± 0.64
TTTTAATTGTTTATTTGTACATATGTTTAATTATAT [XGTACX_site571] | 7.79 ± 0.49
TTATTAAAAATGTATTGTACAAATTTATTAGTAAAT [XGTACX_site4799] | 7.66 ± 0.31
TTTATATTTTAAAAAATAATATTATGTATTTTTAAA [TGCATGCA_negctrl_site507] | 7.21 ± 0.22
GTACTTATTAAATGTGCATGTTGATATATAAATGTA [TGCATGCA_site902] | 8.23 ± 0.57
TTTAATATATATATGTGTACATATAAATTATATATA [XGTACX_site8511] | 7.695 ± 0.035
ATATACATAAAAATATGTACATATAAAATATATACA [XGTACX_site2394] | 7.76 ± 0.12
ATATAATAAACGTGTACACAATTAAATTATTATATA [CACACA_site5017] | 8.59 ± 0.13
TAGACTCCCAGACACACACACACACCCATATAATAT [CACACA_site593] | 7.94 ± 0.35
TATTATTATTGTTGATGTACATTTAATATAATATAT [XGTACX_site4482] | 7.7 ± 0.38
TTTTTTTTTTTTGGTGCATGCACATTTTGTTTTTTT [TGCATGCA_site570] | 9.85 ± 0.014
TGAATAAAAAAACCTAGTACTTAAATAAGTATATTT [XGTACX_site7690] | 7.4 ± 0.61
TATATATTTATATTTACACACAGTTACTATGTAGAT [CACACA_site3292] | 7.66 ± 0.57
ATTAAATGATCAAGGTGTACATTAACAAGAACTATA [XGTACX_site7022] | 8.06 ± 0.31
TAAAAAAAATAGAAACGTACATAAAAAATAAATAAT [XGTACX_site5796] | 8.05 ± 0.59

Sequence | gcPBM binding intensity (ln)
TATATATATACATACGTACACACAAATATTAAAATA [CACACA_site1950] | 8.77 ± 0.28
TATATTTATATATGTTGTACTCTCCAATAATATTCC [XGTACX_site4438] | 7.67 ± 0.48
TCATATAAAACATGCACACATATGTACTCTTATAAA [CACACA_site3748] | 8.57 ± 0.42
TTTATTAATGGACACACACACACACCCAAAATAAAA [CACACA_site4294] | 8.28 ± 0.26
TTGTATCTTCATTTTATCAGAAAAAAAAAAAAAAAT [CACACA_negctrl_site775] | 7.55 ± 0.33
ATATATATATATAGGGGTACTTAAATTTTACTAACC [XGTACX_site1832] | 9.46 ± 0.23
ATTTTATTTATATACACACACATATATATATTATAT [CACACA_site822] | 8.01 ± 0.59
AATAAATAAATAAATTAATATATATATATATATAGA [CACACA_negctrl_site1661] | 7.46 ± 0.49
AAAGGGTTACAAGAGGAACACACAAAAAAATAAATA [CACACA_site8406] | 7.93 ± 0.48
TTTTGCGAAAAAAGGTGTACTGTAAATATATTGAGG [XGTACX_site8941] | 8.35 ± 0.35
AGCACCCACCAACACACACACACACCCACCCACCGA [CACACA_site368] | 8.18 ± 0.13
TTTTTTTTGATTTGTTTGCACTTATTTCCACAATAA | 10.1 ± 0.11
TTTTTTTTTAATTACATAAAATAAAAATATTTCTAT [CACACA_negctrl_site584] | 7.47 ± 0.67
TTAATATGTTTAACCATTTTACATAAATTGATTTGT [CACACA_negctrl_site1100] | 7.53 ± 0.42
TACGTAAATTTTAATACACACTATAGGATATTCTGC [CACACA_site5418] | 7.65 ± 0.55
AAATAAATAAATATACGTACATATATATAATATATA [XGTACX_site5124] | 7.78 ± 0.13
TAATAATAATACCAGCGTACATTTTTCTTTCCTACG [XGTACX_site4056] | 7.78 ± 0.71
TATTTTTTCTTAAACACACACATATATATATATAAT [CACACA_site5567] | 7.88 ± 0.56
TCTGTGTTTTTGGGTACACACAAATAGCTTGTATAT [CACACA_site4002] | 8.08 ± 0.21
TGAAAATTAATAAAAAGTACATAGTCAGATTTGTGA [XGTACX_site2450] | 7.75 ± 0.6
TTCCTTAATCAATATTGTACTTTTTATAAATTTAGT [XGTACX_site3678] | 8.03 ± 0.42
TCTCCTTGTTCCTTTTTTTTAAAAAAAAACATTAAA [CACACA_negctrl_site679] | 8.32 ± 0.49

Source: the supplement of paper PMC11417369
